The list shows a part of the results.
Experiments:
Assay in all cases: glycan array binding signal (z-score within array); higher = stronger binding
Details in all cases: glycan notation: IUPAC condensed, linker removed
[1] = target: Neu5Gc(a2-8)Neu5Gc(a2-3)Gal(b1-4)GlcNAc(b1-3)Gal(b1-4)GlcNAc
Procedure, shortened: (§1)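 Columns mapping to the same glycan were averaged after glycan names were converted to IUPAC-condensed notation. The data come from 3228 arrays in the Consortium for Functional Glycomics database, limited to those with an available protein sequence. Binding is reported as a within-array Z-score averaged across arrays of one protein sequence and across linkers.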

[2] = target: Neu5Gc(a2-8)Neu5Gc(a2-6)Gal(b1-4)GlcNAc
Procedure, shortened: as §1

[3] = target: Neu5Gc(b2-6)Gal(b1-4)GlcNAc
Procedure, shortened: as §1

B1: SGC, Q9M345 (protein)
chain: QNLNFTYNGFHPPLTDISLQGLATVTPNGLLKLTNTSVQKTGHAFCTERIRFKDSQNGNVSSFSTTFVFAIHSQIPTLSGHGIAFVVAPTLGLPFALPSQYIGLFNISNNGNDTNHIFAVEFDTIQSSEFGDPNDNHVGIDLNGLRSANYSTAGYRDDHDKFQNLSLISRKRIQVWIDYDNRSHRIDVTVAPFDSDKPRKPLVSYVRDLSSILLEDMYVGFSSATGSVLSEHFLVGWSFRLNGEAPMLSLSKLPKLPRFEPRRIS
[1]
  glycan array binding signal (z-score): -0.357
[2]
  glycan array binding signal (z-score): -0.41
[3]
  glycan array binding signal (z-score): -0.304

Reference: the supplement of paper PMC8728848
